Reference: paper PMC10668032
The list shows a part of the results. At the low end of the ranking, values are background and their order means little.

biological target: SIX1 homeodomain (reference allele) (UniProt Q15475); test: universal protein binding microarray; details: Universal all-10-mer PBM (8x60K, AMADID 030236), 300 nM GST-tagged protein, Alexa Fluor 488 anti-GST; buffer, salt, pH and temperature not stated; high values mean tight binding; most listed sequences are background and not binding sites; double strand, one strand shown

Sequence | binding signal [E-score]
GATATAAA | 0.184
AACCGATG | -0.0251
AGACATCT | -0.055
AGTCGCGC | -0.23
CTCCAGAG | 0.00688
GCTTGCAA | -0.0604
GAAAAAAA | -0.196
ACCTTTAG | 0.0337
CAGTACGA | 0.0572
AGACCGAC | 0.0307
TTACCCAA | -0.23
GAATGGAC | -0.217
GAAGATTC | -0.234
CTCGTGAA | -0.0207
CCACATCG | -0.127
ACTCTACT | -0.132
ATTGTTCA | 0.0125
AATGCAAG | -0.2
ATGTCAGG | -0.143
AGAGAAAC | -0.0485
ATAGCGGA | 0.227
CAGGGTCA | -0.053
TACAGAGA | 0.03
CCTACCTA | -0.0681
CGCTGTAG | -0.134

Sequence | binding signal [E-score]
CGGGTATC | 0.487
CAATGAGG | -0.164
ACCTCGCA | -0.221
TCCACTAA | -0.00623
CAGTGAAA | -0.0917
CTTGAATA | 0.01
GTGGCTCA | 0.0729
CTAAAGCC | -0.252
CGTCCAAA | -0.265
AATGGCAA | -0.141
GTTAAGAA | -0.0913
GATGATAA | 0.126
CTCAGTGA | 0.0438
ATGTGGGG | -0.0203
CGTTTTAG | -0.18
CACTCATC | -0.0372
AGGGAATA | -0.005
ATCTCTCG | 0.142
CTGTCTCC | -0.0818
AGTCGGCG | -0.273
ACGTACCG | -0.116
AGAACGTC | -0.103
AAAGGCCC | -0.163
ACCTTTTA | -0.15
CGAACTTC | -0.321

Sequence | binding signal [E-score]
AACCGTCT | 0.0013
CAACCAAA | -0.13
AGTGGGAG | -0.0979
CGGTCAGC | -0.111
GCTGCTAC | -0.179
AGTCCTGA | 0.0476
GTGTATTA | 0.271
AGACACCC | 0.335
CATTATAC | 0.28
AGAGTGAT | 0.268
ATGGCTGG | -0.0985
GCTGGAAA | -0.0272
GAGTAGAA | -0.0427
ATACTATG | 0.297
GTAACGCA | -0.16
GCGGGTAA | -0.0604
CAAAGAAG | -0.125
CTAGCCGC | -0.0419
ACTAGGAG | -0.033
CCACCCGC | 0.027
CAACACCA | 0.282
ATTGCTAA | 0.0276
CTGTTTTC | -0.178
ACACCCAG | 0.278
AATGAGGG | -0.0228

Sequence | binding signal [E-score]
ACCATTTC | -0.254
ATCAAGTG | 0.118
GCATACAA | 0.0913
GTACTCCA | -0.0526
AACGTTGG | -0.142
CCGCGTCA | -0.0553
GGTCGCCA | -0.241
CACCGGGC | -0.195
AGAAAGAG | -0.0728
ACCTGGCT | 0.103
GGACAACC | -0.173
CTGAGAGA | 0.0122
ACGGGTAT | 0.435
AGAGCTCC | -0.1
ATCCTATA | 0.296
GCTAAGAC | -0.039
CCAAGGAG | -0.0488
ACATACGT | -0.0428
CTGGTCGA | -0.0879
CAACCTCC | -0.167
CCTTGCGA | 0.0137
AACCATGA | 0.00475
GAACCTCA | -0.076
ATGGAGAC | 0.107
ACACTAGG | 0.0978

Sequence | binding signal [E-score]
GGAGAGAC | 0.0507
CACTACGA | 0.0453
CGCGGAAG | -0.0913
CATCTAGG | 0.144
CAACAATA | 0.0757
ACTTGTAC | -0.0525
GCGTGTGA | 0.113
TAGAACAA | -0.167
ATGGAGTG | -0.104
AGTACGTC | -0.0172
ACCATGAA | -0.0204
GGTTCCAA | 0.0565
CAATCAGC | -0.146
AACCCCAC | 0.122
CCGGACGA | 0.221
TCAAACGA | 0.11
GGGTGAAC | -0.0592
CGATCCCC | 0.437
AAGCATTG | -0.214
AAGGTCCA | -0.145
CTTGTCCC | -0.206
GAGCTGAA | -0.18
AACGGCGG | -0.0734
GCGTCGCA | -0.0258
CCTCACAA | 0.0691

Sequence | binding signal [E-score]
ATGCGCGG | -0.0787
AATCTTTC | -0.258
CCAAACGA | -0.0944
AGTACTCA | -0.0613
CAGACGAG | -0.0269
GAACTTCC | -0.347
AAGTATGG | -0.0682
ATGACCGA | 0.0546
CGTCGCTC | -0.0861
ATTGGGTA | 0.0711
GTACCACA | -0.172
AAGACCTG | -0.0683
AAGCAGCT | -0.318
CTCTTCTA | 0.0433
ACCTAAGG | -0.0621
ACCGAAGC | -0.272
GCCCGACA | -0.108
CCGTGAAA | -0.133
ACTGTTTC | -0.236
CATTGTCA | -0.142
GAATGGGC | -0.191
AGAAGACG | -0.0107
ACAAATTC | 0.0756
AATGGAGT | -0.223
ATTCCGAG | 0.0467

Sequence | binding signal [E-score]
ATAGTAGC | 0.187
GACCGCCA | -0.18
ATGAACAT | -0.0549
CCAAAATA | 0.033
TACATACA | 0.181
CTGCGGTA | 0.0424
CTAGAAAA | -0.155
CTCATAGA | 0.0368
CTCACTGA | -0.0546
CACTGGTC | -0.0959
ACTAGTGC | -0.247
GCATGCTA | 0.00441
AAAGACAA | -0.193
GGCATCAC | 0.0526
GACACGAA | -0.116
AGAACTTG | -0.217
AGCATGTA | -0.0593
ATCTGGTG | 0.266
ACCTATGA | 0.075
CAGTTCCG | -0.0941
CGTCAGGA | -0.0375
CAGGCAAA | -0.156
